Results reported in PubChem BioAssay AID488969 (Vanderbilt High Throughput Screening Facility, 2010).
Over roughly 110,000 compounds, “z-score” has its median near -0.1; the highest 2% begin near 2. Some of the results follow.

The molecules below were run against Metabotropic glutamate receptor 8 (Rattus norvegicus) (UniProt P70579) (assay: mGluR8 Gi/Go-coupled signaling modulation – cell-based, rat, thallium flux, HTS, primary screen (AID 488969)). Settings: HEK293 rat mGluR8, GIRK (G protein-gated inwardly rectifying potassium channel) thallium flux, FluoZin2; at 10 µM; stronger effect = higher value; submaximal glutamate (EC20) added with thallium.
Chain of UniProt P70579 (P70579 whole entry, looked up): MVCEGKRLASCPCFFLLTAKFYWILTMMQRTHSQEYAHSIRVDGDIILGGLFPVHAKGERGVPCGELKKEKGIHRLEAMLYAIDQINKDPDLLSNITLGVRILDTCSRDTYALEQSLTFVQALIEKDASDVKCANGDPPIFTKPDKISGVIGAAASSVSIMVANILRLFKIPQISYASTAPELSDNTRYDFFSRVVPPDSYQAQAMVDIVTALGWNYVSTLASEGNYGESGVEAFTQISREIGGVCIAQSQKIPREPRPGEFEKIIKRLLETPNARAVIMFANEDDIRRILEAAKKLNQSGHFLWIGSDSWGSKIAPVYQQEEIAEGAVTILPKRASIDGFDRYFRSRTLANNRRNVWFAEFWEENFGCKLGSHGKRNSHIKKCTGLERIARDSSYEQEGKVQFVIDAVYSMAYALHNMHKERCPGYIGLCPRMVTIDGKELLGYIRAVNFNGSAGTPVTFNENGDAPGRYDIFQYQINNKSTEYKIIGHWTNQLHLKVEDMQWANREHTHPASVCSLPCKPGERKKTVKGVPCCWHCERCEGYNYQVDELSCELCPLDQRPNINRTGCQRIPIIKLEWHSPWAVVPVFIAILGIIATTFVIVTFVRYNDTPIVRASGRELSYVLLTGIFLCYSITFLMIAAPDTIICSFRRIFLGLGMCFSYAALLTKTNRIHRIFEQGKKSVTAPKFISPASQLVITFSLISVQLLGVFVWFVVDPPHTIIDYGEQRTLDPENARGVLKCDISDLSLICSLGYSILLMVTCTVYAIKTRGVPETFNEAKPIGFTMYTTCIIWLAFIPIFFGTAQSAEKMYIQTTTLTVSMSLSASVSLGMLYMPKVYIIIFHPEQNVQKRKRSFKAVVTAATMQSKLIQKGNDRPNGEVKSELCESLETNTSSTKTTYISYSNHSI

Compound | z-score
CC(C(=O)NCc1ccccc1)N1C(=O)C2CC=C(Cl)CC2C1=O (stereo unspecified) | 0.303
c1ccc(-c2noc(COc3ccc4c(c3)OCO4)n2)cc1 | 0.0125
CC(=O)c1ccc(OCCN2CCOCC2)cc1 | -0.117
O=C(CSc1ncnc2c1cnn2CCc1ccccc1)Nc1ccc(F)cc1 | 0.129
COc1cc(/C=C2\SC(N3CCc4ccccc4C3)=NC2=O)cc(OC)c1OC | -0.793
CCC(NC(=O)Nn1cnnc1)(C(F)(F)F)C(F)(F)F | 0.315
Cc1cccc(N2C(=O)CC(N3CCC(c4nc5ccccc5[nH]4)CC3)C2=O)c1 (stereo unspecified) | -0.364
CC(C)(CS(=O)(=O)[O-])NC(=O)CC[N+](C)(C)CCO | 0.287
O=C(CSc1nc(-c2ccccc2)cs1)Nc1ccccc1[N+](=O)[O-] | -0.0875
CCCOc1ccc(C(=O)NCc2ccco2)cc1 | -0.392
COc1cc2c(cc1NC(=O)Nc1cccc(C)c1)oc1ccccc12 | 2.68
CCc1c(C(=O)OC)nnc2cc(C)nn12 | -0.267
CN(C)CCC#CC(O)(c1ccccc1)c1ccccc1 | -0.348
C=CCn1c(O)c(N=NC(=O)c2ccc3c(c2)OCO3)c2ccccc21 | 0.105
CCCOc1ccc(-c2cnc(SCC(N)=O)nc2N)cc1 | 0.0622
NS(=O)(=O)c1ccc(CCNc2nc(CN3CCCCC3)nc3sc4c(c23)CCC4)cc1 | 0.0511
COc1ccc(-n2cnc3ccccc32)cc1 | 0.277
O=C(/C=C/c1ccco1)N1CCN(C/C=C/c2ccccc2)CC1 | -0.35
C1=CC2CCC1ON2c1ccccc1 (stereo unspecified) | -0.0185
O=S(=O)(NCCOCC(F)(F)F)c1ccc2oc3ccccc3c2c1 | 0.57
Cc1ccc(C)c(-n2c(CNC(=O)c3ccco3)nnc2SCC(=O)Nc2nnc(C)s2)c1 | -0.524
O=C(Nc1nc2ccccc2s1)C1CC(=O)N(c2ccc(Cl)cc2)C1 (stereo unspecified) | 0.049
COC(=O)CSc1nnc(C)n1-c1cccc(C#N)c1 | -0.0426

Compound | z-score
CCOc1ccc(CCNC(=O)Cn2cccc2C(=O)c2ccccc2C)cc1OCC | -0.299
Cn1cnnc1Sc1cc(N2CCN(S(=O)(=O)c3ccc(Cl)c(Cl)c3)CC2)ccc1[N+](=O)[O-] | 0.518
Cc1ccc(CNC(=O)CN2CCN(Cc3ccc(C)cc3)C2=O)cc1 | -1.28
Cc1ccc(C)c(OCCn2cc(/C=C(\C#N)C(=O)NCC3CCCO3)c3ccccc32)c1 (stereo unspecified) | 0.314
CCn1c2ccccc2c2cc(NC(=O)C/C(C)=N/NC(=O)c3ccccc3N)ccc21 | -0.0756
C=C(C)COc1ccc(-c2n[nH]c(C)c2-c2ccccc2)c(O)c1 | 0.924
N#CCCN(C(=O)CN1C(=O)NC2(CCCC2)C1=O)c1ccccc1F | -0.195
O=C1CCC(=O)c2oc3ccccc3c2N1 | -0.303
Cc1cccc(OCC(=O)OC2CCN(C)CC2)c1 | 0.237
CCOc1nc(NCCO)nc(Nc2ccc([N+](=O)[O-])cc2)n1 | -0.104
Cc1c(NC(=O)CN2C(=O)c3ccccc3C2=O)c(=O)n(-c2ccccc2)n1C | -0.51
c1ccc(Sc2cnc3ccccc3n2)cc1 | 0.183
CCc1ccc(NS(=O)(=O)c2ccc(OC)c(C)c2)cc1 | -0.118
O=C(CCCSc1nc2ccccc2[nH]1)N1CCN(c2ccc([N+](=O)[O-])cc2)CC1 | -0.0483
O=c1cc(-c2ccccc2)nc2nc[nH]n12 | -0.502
CCN(CC)S(=O)(=O)c1ccc(NC(=O)C(C)N(c2ccc(OC)cc2)S(C)(=O)=O)cc1 (stereo unspecified) | -0.182
CC(C)CCSc1nc(N)c(C#N)cc1C#N | -0.591
COc1ccc(Cn2c(SCc3ccc(C)cc3)nc3cc(OC)c(OC)cc3c2=N)cc1Cl | -0.112
N/N=c1\sc2ccccc2n1-c1ccccc1 | 0.118
O=C(Nc1cccnc1)c1cccnc1Cl | 0.0677
Cc1ccc(-c2ccccc2NC(=O)CCl)o1 | -0.0953
O=C(OCCNc1ncc(C(F)(F)F)cc1Cl)c1ccc(S(=O)(=O)N2CCOCC2)cc1 | 0.258
N#CCCN1CCN(C(=S)c2ccc(-c3ccc(Cl)cc3)o2)CC1 | 0.291

Compound | z-score
Cc1ccc(-c2n[nH]c(=S)n2/N=C/c2cccs2)cc1 | 2.22
O=[N+]([O-])c1ccc(Cl)cc1Sc1nc2ccccc2o1 | -0.37
CS/C(N)=N/N=C/c1ccc([N+](=O)[O-])cc1 | -0.414
CCOc1nc(OCC)nc(N2CCC(C)CC2)n1 | -0.578
C/C(=N\NC(=O)CN1CCOCC1)C(C)(C)C | 0.0872
COc1ccc(Cc2nnc(NC(=O)Cn3cnc4c3c(=O)n(C)c(=O)n4C)s2)cc1 | -0.441
COc1ccc(-c2nc(NC(=O)c3n[nH]c(=O)c4ccccc34)sc2C)cc1 | -0.088
CCc1ccc(OCC(=O)N/N=C(\C)c2ccc(-n3ccnc3)cc2)cc1 | -0.476
CSc1ccc(-c2c(C#N)c(N)nc3c2c(C)nn3-c2ccccc2)cc1 | 0.109
Cc1nn(-c2cc(C)c3ccccc3n2)c2c1CCC2 | 0.557
COc1cccc(/C=N/NC(=O)CCc2c(C)n[nH]c2C)c1 | -0.423
O=C(CSc1nnc(-c2ccc(Cl)cc2Cl)n1C1CCCCC1)N1CCCC1 | -0.796
CCC(=O)c1ccc(OCCN2CCOCC2)cc1 | 0.0439
CC1CCCC(C)N1Cc1cn2ccccc2n1 (stereo unspecified) | 0.482
COc1ccc(S(=O)(=O)N2CCCC(C(=O)Nc3cccc(C(C)=O)c3)C2)cc1 (stereo unspecified) | -0.823
CC(C)(C)OC(=O)N1CCC[C@H]1c1nnc(SCc2ccccc2F)o1 | -0.183
CCN(CC)S(=O)(=O)c1cccc(C(=O)OCC(=O)c2ccc3c(c2)NC(=O)CO3)c1 | -0.586
Clc1ccc(-c2csc(N3CCN(c4ccccc4)CC3)n2)cc1 | 0.593
O=C(COc1ccccc1Br)NCc1ccccn1 | -0.326
CCOC(=O)N1CCN(C(=O)c2ccccc2NC(=O)c2ccc(C(C)(C)C)cc2)CC1 | -0.448
O=C(O)c1ccc(NS(=O)(=O)c2cc(Cl)ccc2Cl)cc1 | -0.151
CC(C)(C)NCCCCOc1ccc(F)cc1 | 2.98
CC(=O)Nc1ccc(S(=O)(=O)NC2=C(N3CCN(Cc4ccccc4)CC3)C(=O)c3ccccc3C2=O)cc1 | -0.0575

Compound | z-score
O=C(CCl)Nc1cc(S(=O)(=O)N2CCCCCC2)ccc1Cl | -0.171
COCC(C)n1c(C)cc(C(=O)COC(=O)c2ccc3c(c2)NC(=O)CS3)c1C (stereo unspecified) | -0.13
Cc1ccsc1/C=N/NC(=O)CSCc1ccc(Cl)cc1 | 1.84
O=C(COc1ccccc1)N/N=C/c1cc2c(cc1[N+](=O)[O-])OCO2 | -0.205
Cc1cc(=O)oc2cc(OCC(=O)N3CCc4ccccc4C3)ccc12 | 0.0165
Cc1cccc(OCC(=O)N/N=C\C=C\c2ccc3c(c2)OCO3)c1C | -0.127
O=C1Nc2ccccc2C12OCCCO2 | 0.489
Cc1cccc(N2CCN(C(=O)c3cc4c(=O)n(C)c5ccccc5c4n3C)CC2)c1C | -0.508
Cc1sc2ncnc(NCC3CCCO3)c2c1C (stereo unspecified) | -0.159
COc1ccc(Br)cc1S(=O)(=O)N1CCN=C1C | -1.32
O=C(Nc1ccccc1)C1CCCN(S(=O)(=O)c2ccc(-n3cnnn3)cc2)C1 (stereo unspecified) | 0.136
COC(=O)c1scc(C)c1N/N=C(\C)c1ccc(F)cc1 | -0.0161
CCOC(=O)c1c(C)[nH]c(O)c1C=Nc1ccccc1 | -0.648
O=C(CN(CC1CCCO1)S(=O)(=O)c1ccc(S(=O)(=O)NCC2CCCO2)cc1)Nc1ccccc1 (stereo unspecified) | 0.361
CC(C)Sc1nnc([C@H](Cc2c[nH]c3ccccc23)NC(=O)OC(C)(C)C)o1 | -0.0825
Cc1ccc(NC(=O)C(=O)c2c(-c3ccccc3)cc3ccccn23)cc1S(=O)(=O)N1CCOCC1 | -0.619
CC(C)CC(=O)c1c[nH]c(C(=O)NCCCn2ccnc2)c1 | 0.0582
O=C(COc1ccc(Cl)cc1)OCC(=O)N1CCCCCC1 | -1.1
O=C(CSc1cc([N+](=O)[O-])cc(S(=O)(=O)Cc2ccccc2)c1)NC1CC1 | -0.31
Cn1cc(/C=C2\SC(=S)N(NC(=O)c3ccccc3Cl)C2=O)c2ccccc21 | -0.389
CCOC(=O)C1CCCC(NS(=O)(=O)c2ccc(NC(C)=O)cc2)C1 (stereo unspecified) | -0.169
COc1ccc(NC(=O)NCc2ccncc2)c(OC)c1 | -0.842
Cc1cccn2c(=O)c(/C=C(\C#N)C(=O)NC3CCS(=O)(=O)C3)c(N3CCC(C(N)=O)CC3)nc12 (stereo unspecified) | -0.802

Compound | z-score
CCn1c(CNC(=O)c2ccc3c(c2)OCO3)nnc1SCC(=O)Nc1cc(C)ccc1OC | -0.48
NC(=O)C1CCN(CC(=O)Nc2ccccn2)CC1 | 0.329
Cc1ccc(C(=O)ONc2ccc(N=NC(=O)c3ccccc3O)cc2)cc1 | 1.17
O=C(COc1ccc(Br)cc1Cl)NC(=S)N1CCc2ccccc21 | 2.28
O=C(NCc1n[nH]c(=S)n1-c1ccccc1)c1ccco1 | 0.53
CCCCc1c(O)n2c(nc3ccccc32)[nH]c1=O | -0.934
Cc1cccc(C(=O)NC2CC3CCCC(C2)N3C(=O)NC2CCCCC2)c1 (stereo unspecified) | 0.405
S=c1[nH]nc([C@@H]2C[C@H]2c2ccccc2)n1-c1ccccc1 | -0.292
C=CCNC(=O)c1ccc(Cn2c(=S)[nH]c3cc4c(cc3c2=O)OCO4)cc1 | 0.00824
COC(=O)/C=C/c1ccc(OC(=O)OC)c(OC(=O)OC)c1 | -0.0752
CC(=NCc1ccc2c(c1)OCO2)C1=C(O)c2ccccc2C1=O | -0.0533
CCC1(CC)C(=O)NC(=O)NC1=NCCc1c[nH]c2ccccc12 | 0.00649
COc1ccc(CCNC(=O)CN(c2ccccc2OC)S(C)(=O)=O)cc1OC | 1.13
Cc1[nH]n(-c2ccc(Br)cc2)c(=O)c1C=Nc1ccc(S(=O)(=O)Nc2nccs2)cc1 | -0.653
O=C(c1ccco1)N1CCN(C(c2cccs2)c2nnnn2C2CCCCC2)CC1 (stereo unspecified) | -0.151
CCOc1ccccc1N1CCN(S(=O)(=O)c2ccc(Cl)s2)CC1 | -0.553
COC(=O)c1c(N)sc(C(C)=O)c1C | 1.78
O=C(NCCC1=CCCCC1)c1cnc2n(c1=O)CCS2 | -0.139
C=CCN1C(=O)C(CC(=O)Nc2ccccc2)SC1=Nc1c(C)n(C)n(-c2ccccc2)c1=O (stereo unspecified) | 1.07
